Laboratory results from article PMC9911399, “Two distinct binding modes provide the RNA-binding protein RbFox with extraordinary sequence specificity”.
Changes are numbered by the printed parent chain; changes in the protein carry UniProt numbers. The list shows a part of the results.

B1: CCCCACG (DNA:RNA)
RNA: GGGAGACCGGAAUUCAGAUUGUCCCCCCACGUUAAAUCCCGUCGUAGCCACCA
DNA 1: CAATCTGAATTCCGGTCTCCC
DNA 2: TGGTGGCTACGACGGGATT
B2: GCUCUAU (DNA:RNA)
RNA: B1 RNA with C25G, C27U, A29U, C30A, G31U
DNA 1: CAATCTGAATTCCGGTCTCCC
DNA 2: TGGTGGCTACGACGGGATT
B3: AUAGUAG (DNA:RNA)
RNA: B1 RNA with C25A, C26U, C27A, C28G, A29U, C30A
DNA 1: CAATCTGAATTCCGGTCTCCC
DNA 2: TGGTGGCTACGACGGGATT
B4: CUUACCA (DNA:RNA)
RNA: B1 RNA with C26U, C27U, C28A, A29C, G31A
DNA 1: CAATCTGAATTCCGGTCTCCC
DNA 2: TGGTGGCTACGACGGGATT
B5: UAACAGG (DNA:RNA)
RNA: B1 RNA with C25U, C26A, C27A, C30G
DNA 1: CAATCTGAATTCCGGTCTCCC
DNA 2: TGGTGGCTACGACGGGATT
B6: AAGCAAC (DNA:RNA)
RNA: B1 RNA with C25A, C26A, C27G, C30A, G31C
DNA 1: CAATCTGAATTCCGGTCTCCC
DNA 2: TGGTGGCTACGACGGGATT
B7: AGUGCUU (DNA:RNA)
RNA: GGGAGACCGGAAUUCAGAUUGUCCAGUGCUUUUAAAUCCCGUCGUAGCCACCA
DNA 1: CAATCTGAATTCCGGTCTCCC
DNA 2: TGGTGGCTACGACGGGATT
B8: UCAAACC (DNA:RNA)
RNA: B1 RNA with C25U, C27A, C28A, G31C
DNA 1: CAATCTGAATTCCGGTCTCCC
DNA 2: TGGTGGCTACGACGGGATT
B9: GGAAUUA (DNA:RNA)
RNA: B7 RNA with A25G, U27A, G28A, C29U, U31A
DNA 1: CAATCTGAATTCCGGTCTCCC
DNA 2: TGGTGGCTACGACGGGATT

target: T1, RBFOX1 RRM RbFoxmut (Fox-RRM*) (Homo sapiens, UniProt Q9NWB1 109-208, R118D;E147R;N151S;E152T); assay: EMSA; HiTS-Eq, 1 nM pool, 10 min; buffer printed only for the single-RNA assays: 10 mM Tris pH 7.5, 150 mM NaCl, 3.4 mM EDTA, 0.001% NP-40, 30 C; conditions: tags: His6 N-terminal (pET28a); label: 5' 32P
T1 sequence: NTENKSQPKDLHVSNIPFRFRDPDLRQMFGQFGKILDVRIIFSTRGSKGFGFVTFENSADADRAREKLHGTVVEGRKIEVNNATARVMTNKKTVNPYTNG
Outline: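 Purified wild-type or mutant RbFox RRM at increasing concentrations was equilibrated with 1 nM of 5′-radiolabelled RNA carrying 7 randomized nucleotides for 10 min in 50 µL. Unbound RNA was separated by 8% native PAGE and sequenced. Relative association constants came from read-count changes of each RNA species compared with the control reaction, normalised to the cognate motif.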

Binder	binding signal
B1	0.107 KA relative to UGCAUGU
B2	0.0876 KA relative to UGCAUGU
B3	0.173 KA relative to UGCAUGU
B4	0.0834 KA relative to UGCAUGU
B5	0.0922 KA relative to UGCAUGU
B6	0.0901 KA relative to UGCAUGU
B7	0.102 KA relative to UGCAUGU
B8	0.0724 KA relative to UGCAUGU
B9	0.107 KA relative to UGCAUGU
